# Assay results taken from paper PMC5700166.
# This is a selection; strong and weak results do not stand in their true shares. The list includes weakly bound sequences.
# Columns and labels:
# Assay in all cases: protein-binding microarray (PBM)
# Conditions in all cases: PBM: ~300 nM protein, 6 mM HEPES pH 7.8, 80 mM KCl, 0.5 mM EDTA, 0.5 mM EGTA, 6% glycerol, 35 ng/ul poly-dIdC, 1% milk, 1 h, room temperature; Ap Aiptasia and Nv Nematostella (sea anemones) / Co Capsaspora / Aq Amphimedon (sponge) / Dm Drosophila / Hu human; RHD is the Rel homology domain; high values mean tight binding; most listed sequences are background and not binding sites; double strand, one strand shown
# [1] = molecular target: T1, GST-Ap-NF-kB RHD (UniProt A0A913YAJ5)
# T1 sequence: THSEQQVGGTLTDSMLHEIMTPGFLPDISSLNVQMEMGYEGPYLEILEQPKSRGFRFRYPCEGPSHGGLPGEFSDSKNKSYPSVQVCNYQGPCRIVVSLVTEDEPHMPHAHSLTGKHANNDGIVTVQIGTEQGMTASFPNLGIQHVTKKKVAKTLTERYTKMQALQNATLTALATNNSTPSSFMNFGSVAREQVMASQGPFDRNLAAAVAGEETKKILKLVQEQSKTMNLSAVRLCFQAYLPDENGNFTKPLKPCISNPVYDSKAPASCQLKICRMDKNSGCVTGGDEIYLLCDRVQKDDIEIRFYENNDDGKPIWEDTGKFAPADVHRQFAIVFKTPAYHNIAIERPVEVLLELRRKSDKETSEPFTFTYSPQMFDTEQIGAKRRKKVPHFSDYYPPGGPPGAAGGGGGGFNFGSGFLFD
# [2] = molecular target: T2, GST-Nv-NF-kB (Cys allele) (UniProt E5G601)
# T2 sequence: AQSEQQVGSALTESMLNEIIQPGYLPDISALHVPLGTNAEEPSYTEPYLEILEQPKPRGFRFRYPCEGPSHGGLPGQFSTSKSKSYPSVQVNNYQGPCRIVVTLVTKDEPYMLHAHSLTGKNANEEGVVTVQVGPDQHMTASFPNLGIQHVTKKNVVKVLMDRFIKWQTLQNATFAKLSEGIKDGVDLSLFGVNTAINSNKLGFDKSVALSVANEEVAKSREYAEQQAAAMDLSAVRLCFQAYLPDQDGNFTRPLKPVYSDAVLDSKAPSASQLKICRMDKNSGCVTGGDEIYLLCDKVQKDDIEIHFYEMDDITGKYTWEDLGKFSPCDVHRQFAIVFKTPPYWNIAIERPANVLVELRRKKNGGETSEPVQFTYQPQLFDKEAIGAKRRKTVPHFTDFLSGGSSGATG
# [3] = molecular target: T3, GST-Co-NF-kB (UniProt F1ARL5)
# T3 sequence: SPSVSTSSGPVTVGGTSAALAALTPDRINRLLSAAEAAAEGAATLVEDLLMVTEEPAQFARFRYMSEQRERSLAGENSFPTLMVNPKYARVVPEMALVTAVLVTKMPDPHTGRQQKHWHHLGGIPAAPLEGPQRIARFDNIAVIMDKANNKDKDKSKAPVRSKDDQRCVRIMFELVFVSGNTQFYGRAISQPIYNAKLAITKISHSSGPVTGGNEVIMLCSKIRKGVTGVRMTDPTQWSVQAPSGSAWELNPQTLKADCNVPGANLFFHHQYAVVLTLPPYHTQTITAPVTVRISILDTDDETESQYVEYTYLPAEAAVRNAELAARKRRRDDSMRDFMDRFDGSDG
# [4] = molecular target: T4, GST-Dm-Relish (UniProt Q94527)
# T4 sequence: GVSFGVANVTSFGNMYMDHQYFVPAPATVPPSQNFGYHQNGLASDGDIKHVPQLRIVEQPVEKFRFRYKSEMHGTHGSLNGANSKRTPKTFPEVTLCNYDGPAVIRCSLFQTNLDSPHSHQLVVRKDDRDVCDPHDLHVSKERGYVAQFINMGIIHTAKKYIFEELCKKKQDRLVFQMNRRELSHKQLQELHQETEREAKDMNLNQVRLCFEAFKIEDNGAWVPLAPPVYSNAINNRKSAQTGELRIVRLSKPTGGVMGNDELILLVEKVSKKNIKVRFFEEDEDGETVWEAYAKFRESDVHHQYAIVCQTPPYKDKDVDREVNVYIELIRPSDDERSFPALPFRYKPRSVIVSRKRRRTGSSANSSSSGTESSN
# [5] = molecular target: T5, GST-Aq-NF-kB (UniProt A9Y5G7)
# T5 sequence: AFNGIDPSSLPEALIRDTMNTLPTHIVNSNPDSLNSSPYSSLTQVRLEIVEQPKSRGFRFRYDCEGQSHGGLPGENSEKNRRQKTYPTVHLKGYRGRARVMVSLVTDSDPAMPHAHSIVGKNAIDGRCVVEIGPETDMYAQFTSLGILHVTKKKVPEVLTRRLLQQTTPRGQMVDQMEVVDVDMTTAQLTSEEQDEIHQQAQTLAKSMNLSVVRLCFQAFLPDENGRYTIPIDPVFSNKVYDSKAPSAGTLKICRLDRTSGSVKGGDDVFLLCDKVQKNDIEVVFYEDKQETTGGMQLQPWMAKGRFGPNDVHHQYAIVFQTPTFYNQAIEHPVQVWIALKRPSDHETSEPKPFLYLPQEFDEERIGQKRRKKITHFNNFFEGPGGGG
Sequence,binding signal [1] [z-score],binding signal [2] [z-score],binding signal [3] [z-score],binding signal [4] [z-score],binding signal [5] [z-score]
CCGATTAACATCACGGAATTTTCTGATGTTAATCGGGTCTTGATTCGCTTGACGCTGCTG,-0.0241,0.481,0.808,1.06,2.35
CCGATTAACATCACCTAGCACGATGATGTTAATCGGGTCTTGATTCGCTTGACGCTGCTG,0.0891,-0.315,0.556,0.257,0.339
CCGATTAACATCAAGCCAAGGCCTGATGTTAATCGGGTCTTGATTCGCTTGACGCTGCTG,-1.34,-0.482,-2.19,-1.1,-0.844
CCGATTAACATCAGCGACCCGAATGATGTTAATCGGGTCTTGATTCGCTTGACGCTGCTG,-0.319,-0.456,-0.515,0.00415,-0.316
CCGATTAACATCAGTCCACACCATGATGTTAATCGGGTCTTGATTCGCTTGACGCTGCTG,-0.549,-0.424,-0.218,-0.137,-0.417
CCGATTAACATCAAAATTCCGTATGATGTTAATCGGGTCTTGATTCGCTTGACGCTGCTG,-0.399,-0.322,0.454,0.384,0.959
CCGATTAACATCAATGAGGTTTCTGATGTTAATCGGGTCTTGATTCGCTTGACGCTGCTG,0.0659,-0.322,-0.124,-0.473,-0.47
CCGATTAACATCAAGCACAACATTGATGTTAATCGGGTCTTGATTCGCTTGACGCTGCTG,-0.571,0.0588,-0.467,-0.116,-0.265
CCGATTAACATCACCTGGAGCGATGATGTTAATCGGGTCTTGATTCGCTTGACGCTGCTG,0.282,0.374,-0.278,0.232,0.225
CCGATTAACATCACGTGCTCCCGTGATGTTAATCGGGTCTTGATTCGCTTGACGCTGCTG,0.783,-0.459,0.19,0.115,0.223
CCGATTAACATCACGGAAATTCATGATGTTAATCGGGTCTTGATTCGCTTGACGCTGCTG,-0.339,0.109,0.774,0.144,0.717
CCGATTAACATCAGTACCTCGTATGATGTTAATCGGGTCTTGATTCGCTTGACGCTGCTG,-0.0235,0.569,0.25,-0.259,0.228
CCGATTAACATCAGTGTCATCCCTGATGTTAATCGGGTCTTGATTCGCTTGACGCTGCTG,0.826,-0.511,0.227,-0.651,0.203
CCGATTAACATCAGCATAAGTCTTGATGTTAATCGGGTCTTGATTCGCTTGACGCTGCTG,-0.56,-0.355,-0.205,-0.546,-0.434
CCGATTAACATCATCGGTGCCGTTGATGTTAATCGGGTCTTGATTCGCTTGACGCTGCTG,-0.202,0.392,-0.811,-0.455,-0.0735
CCGATTAACATCAAAAAGACTAATGATGTTAATCGGGTCTTGATTCGCTTGACGCTGCTG,-0.978,-0.648,-0.821,-0.147,-0.292
CCGATTAACATCAGGTCAAAGCCTGATGTTAATCGGGTCTTGATTCGCTTGACGCTGCTG,-0.926,-0.292,-1.83,-1.13,-0.634
CCGATTAACATCATCGAGCATGCTGATGTTAATCGGGTCTTGATTCGCTTGACGCTGCTG,-0.372,-0.614,-1.8,-0.855,-0.515
CCGATTAACATCAGCGCAGCGGCTGATGTTAATCGGGTCTTGATTCGCTTGACGCTGCTG,-0.687,0.0571,-1.56,-0.96,-0.749
CCGATTAACATCATTTCAACGTATGATGTTAATCGGGTCTTGATTCGCTTGACGCTGCTG,-0.467,-0.698,-0.473,-0.503,-0.434
CCGATTAACATCAGGAAATCTCCTGATGTTAATCGGGTCTTGATTCGCTTGACGCTGCTG,-0.717,0.34,-1.1,0.00386,1.25
CCGATTAACATCACAATTTGGACTGATGTTAATCGGGTCTTGATTCGCTTGACGCTGCTG,0.00807,-0.496,0.313,0.178,0.00868
CCGATTAACATCAACGCGTAACTTGATGTTAATCGGGTCTTGATTCGCTTGACGCTGCTG,-0.943,-0.734,-0.586,-0.74,-0.686
CCGATTAACATCATACTCACTCGTGATGTTAATCGGGTCTTGATTCGCTTGACGCTGCTG,-0.43,-0.0735,0.45,-0.374,-0.448

Sequence,binding signal [1] [z-score],binding signal [2] [z-score],binding signal [3] [z-score],binding signal [4] [z-score],binding signal [5] [z-score]
CCGATTAACATCAAGGAATTCCGTGATGTTAATCGGGTCTTGATTCGCTTGACGCTGCTG,0.373,-0.0597,0.42,1.78,1.75
CCGATTAACATCACTTACCTTGTTGATGTTAATCGGGTCTTGATTCGCTTGACGCTGCTG,0.00893,0.442,0.443,-0.0144,-0.0505
CCGATTAACATCAATGTCATAGATGATGTTAATCGGGTCTTGATTCGCTTGACGCTGCTG,-0.906,0.12,-0.134,-0.431,-0.195
CCGATTAACATCAGTGCACGCCCTGATGTTAATCGGGTCTTGATTCGCTTGACGCTGCTG,-0.0506,-1.95,-1.75,-0.885,-0.248
CCGATTAACATCACGTAACTCCATGATGTTAATCGGGTCTTGATTCGCTTGACGCTGCTG,0.0524,-0.0919,-0.0876,0.143,-0.162
CCGATTAACATCAGGCCTTTCCATGATGTTAATCGGGTCTTGATTCGCTTGACGCTGCTG,-0.681,0.406,-0.162,1.71,0.853
CCGATTAACATCAGGGCAAGTACTGATGTTAATCGGGTCTTGATTCGCTTGACGCTGCTG,0.157,0.216,-0.136,1.44,2.28
CCGATTAACATCAAGGACATTCCTGATGTTAATCGGGTCTTGATTCGCTTGACGCTGCTG,-0.0877,-0.184,-0.341,0.36,1.43
CCGATTAACATCATTTCAGCCCTTGATGTTAATCGGGTCTTGATTCGCTTGACGCTGCTG,-0.39,-0.187,0.441,-0.561,-0.221
CCGATTAACATCATCATGTTAAATGATGTTAATCGGGTCTTGATTCGCTTGACGCTGCTG,-1.23,-0.99,-0.38,-0.202,-0.571
CCGATTAACATCACACGAGGCTTTGATGTTAATCGGGTCTTGATTCGCTTGACGCTGCTG,-0.0324,-0.251,-0.476,0.267,-0.305
CCGATTAACATCAGGTCAACAAGTGATGTTAATCGGGTCTTGATTCGCTTGACGCTGCTG,-0.456,-0.164,0.139,-0.315,-0.348
CCGATTAACATCACGTAAATCCATGATGTTAATCGGGTCTTGATTCGCTTGACGCTGCTG,-0.671,-0.161,0.611,1,-0.341
CCGATTAACATCACATGTTGTTTTGATGTTAATCGGGTCTTGATTCGCTTGACGCTGCTG,-1.03,0.0565,0.351,0.631,-0.173
CCGATTAACATCAAGCCTATTTGTGATGTTAATCGGGTCTTGATTCGCTTGACGCTGCTG,-0.536,-0.816,0.167,0.0147,-0.367
CCGATTAACATCAGGTATTTTTATGATGTTAATCGGGTCTTGATTCGCTTGACGCTGCTG,1.27,2.01,0.3,3.8,2.77
CCGATTAACATCATGCACTAAAGTGATGTTAATCGGGTCTTGATTCGCTTGACGCTGCTG,-0.245,-0.955,0.366,-0.102,-0.553
CCGATTAACATCAAGAGAATTCCTGATGTTAATCGGGTCTTGATTCGCTTGACGCTGCTG,-0.425,-0.164,-0.61,-0.0152,0.794
CCGATTAACATCAAGGAAGGAGTTGATGTTAATCGGGTCTTGATTCGCTTGACGCTGCTG,0.157,0.581,0.237,-0.274,-0.0897
CCGATTAACATCAAACTCCATCCTGATGTTAATCGGGTCTTGATTCGCTTGACGCTGCTG,-0.875,-0.551,0.0766,-0.364,-0.103
CCGATTAACATCAGTGGAAAGTATGATGTTAATCGGGTCTTGATTCGCTTGACGCTGCTG,-0.0365,0.0873,0.544,0.0163,-0.178
CCGATTAACATCAGTAACTGTACTGATGTTAATCGGGTCTTGATTCGCTTGACGCTGCTG,-1.01,-0.123,-0.153,0.0464,-0.339
CCGATTAACATCACAGACCCAGCTGATGTTAATCGGGTCTTGATTCGCTTGACGCTGCTG,0.351,-0.378,-0.739,0.0222,-0.277
